Measured values taken from article PMC4336329 (PLoS ONE, 2015).
Screen size: about 310,000 compounds; about 14,000 (4.5%) showed an effect of 50% or more. Effects have a minus sign here. The list shows a part of the results.

target: human ether-à-go-go-related gene (hERG) potassium channel (human, UniProt Q12809); test: primary screen, population patch clamp on CHO cells stably expressing hERG
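Also: peak tail current of the secondary pulse compared with the same well before compound.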

human ether-à-go-go-related gene (hERG) potassium channel, sequence (Q12809 whole entry, looked up): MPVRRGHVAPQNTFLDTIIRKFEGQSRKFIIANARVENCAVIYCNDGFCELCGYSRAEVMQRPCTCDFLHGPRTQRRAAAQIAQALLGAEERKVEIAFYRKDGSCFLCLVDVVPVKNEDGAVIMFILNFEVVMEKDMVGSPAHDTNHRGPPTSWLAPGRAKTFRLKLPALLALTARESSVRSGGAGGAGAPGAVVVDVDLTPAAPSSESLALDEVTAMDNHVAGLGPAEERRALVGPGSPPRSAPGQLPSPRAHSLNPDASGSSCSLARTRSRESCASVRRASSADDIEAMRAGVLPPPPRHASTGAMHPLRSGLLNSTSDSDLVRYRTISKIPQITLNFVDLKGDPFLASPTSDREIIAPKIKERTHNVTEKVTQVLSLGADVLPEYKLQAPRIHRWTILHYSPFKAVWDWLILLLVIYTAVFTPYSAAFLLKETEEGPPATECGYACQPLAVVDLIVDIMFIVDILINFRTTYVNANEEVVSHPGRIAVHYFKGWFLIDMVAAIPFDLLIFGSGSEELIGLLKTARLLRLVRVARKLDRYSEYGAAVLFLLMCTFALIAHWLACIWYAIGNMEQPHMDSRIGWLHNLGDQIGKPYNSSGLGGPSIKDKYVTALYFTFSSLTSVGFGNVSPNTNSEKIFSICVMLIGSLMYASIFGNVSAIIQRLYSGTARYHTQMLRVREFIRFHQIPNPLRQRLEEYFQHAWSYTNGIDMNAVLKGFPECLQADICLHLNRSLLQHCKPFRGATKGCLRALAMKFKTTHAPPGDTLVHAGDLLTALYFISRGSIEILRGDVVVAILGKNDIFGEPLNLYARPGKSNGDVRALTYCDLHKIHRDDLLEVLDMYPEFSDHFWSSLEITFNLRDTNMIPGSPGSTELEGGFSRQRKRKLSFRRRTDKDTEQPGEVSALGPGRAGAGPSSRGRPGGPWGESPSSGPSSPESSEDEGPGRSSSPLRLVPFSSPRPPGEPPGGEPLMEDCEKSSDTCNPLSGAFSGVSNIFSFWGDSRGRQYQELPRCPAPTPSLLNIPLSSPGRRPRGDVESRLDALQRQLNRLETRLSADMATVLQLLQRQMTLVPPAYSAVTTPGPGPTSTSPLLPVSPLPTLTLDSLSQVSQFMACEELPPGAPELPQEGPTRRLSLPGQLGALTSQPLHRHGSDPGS

SMILES	hERG current change (%, negative = inhibition) at 10uM
O=C(O)C1CC(=O)n2c(nc3ccccc32)S1 (stereo not shown)	18.5%
O=C(CN(Cc1ccccc1)C(=O)CNS(=O)(=O)c1ccccc1)NCC1CCCO1 (stereo not shown)	1.85%
Nc1nc(NC(=O)c2ccccc2Cl)nn1-c1ccccc1	1.53%
CCOc1ccc(S(=O)(=O)NCCC(=O)N2CC(C)CC(C)C2)cc1 (stereo not shown)	-22.2%
C=CCC(COCc1ccccc1)NS(=O)(=O)c1ccccc1Br (stereo not shown)	-2.59%
CCOC(=O)C(CC)/C(C)=N/NC(=O)c1ccccc1[N+](=O)[O-] (stereo not shown)	-14%
COc1cc(NS(=O)(=O)c2ccc(NC(=O)C3CCCO3)cc2)nc(OC)n1 (stereo not shown)	6.87%
Cc1cccc([N+](=O)[O-])c1C(=O)O	11.6%
CC(Nc1cccnc1)=C(C#N)C#N	1.13%
COc1ccc(-c2cc3nc(C)c(CCC(=O)NCc4ccc(F)cc4)c(C)n3n2)c(OC)c1	-60.4%
Cc1cnc(CN(C)C(=O)CC2C(=O)NCCN2CCCc2ccccc2)[nH]1 (stereo not shown)	12.9%
CC(NC(=O)/C(C#N)=C1\N=C(NC(=O)c2cccs2)c2ccccc21)c1ccccc1 (stereo not shown)	6.61%
N#Cc1ccccc1NC(=S)NC(=O)C1CCC1	9.95%
COc1ccc(CNC(=O)N2CCc3ccccc3C2)cc1Cl	5.83%
Cc1ccc(C(=O)Nc2ccccc2)cc1S(=O)(=O)Nc1ccc(Cl)cn1	7.53%
Cl.O=C(Nc1nnc(CCN2CCCCC2)s1)c1ccccc1	4.58%
O=C(Cc1ccc(Br)cc1)N1CCN(C(=O)c2ccco2)CC1	-32.3%
CCOc1ccc(-n2c(=O)[nH]c3sc4c(c3c2=O)CCCC4)cc1	16.7%
CCCCNc1nc(-c2ccccc2)nc(-n2ccnc2)n1	12.2%
O=C(CSc1nc(N2CCOCC2)nc(N2CCOCC2)n1)Nc1ccc([N+](=O)[O-])cc1	-12.8%
COCCNC(=O)c1cccc(S(=O)(=O)N2CC3(C)CC2CC(C)(C)C3)c1 (stereo not shown)	-13.1%
Cn1cccc1/C=N/N1CCN(Cc2ccc(Cl)cc2)CC1	-17.8%

SMILES	hERG current change (%, negative = inhibition) at 10uM
CCOC(=O)Cn1nc(-c2ccccc2)nc1-c1ccccc1	-9.06%
CCN(CC(=O)Nc1c(F)cccc1F)C(=O)c1ccc(N2CCOCC2)c([N+](=O)[O-])c1	0.198%
O=C(c1cccc(S(=O)(=O)N2CCCCC2)c1)N1CCN(S(=O)(=O)c2ccc(F)cc2)CC1	-40.6%
COCCn1c(C)c(C)c2c(NCCc3ccccc3)ncnc21	-29.3%
COc1cccc(NC(=O)COc2cc(O)c3c(c2)OC(C)(C)CC3=O)c1	-19.9%
CCCS(=O)(=O)N1CCC(C(=O)NC2CCC(C)CC2)CC1 (stereo not shown)	12.5%
CCOC(=O)C1=C(C)N(C)C2(C)CC1c1ccccc1O2 (stereo not shown)	-17.5%
O=C(Nc1ccc(OC(=O)N2CCCCC2)cc1)N1CCOCC1	4.57%
O=C(c1cccc2c1C(=O)N(Cc1cccnc1)C2)N1CCN(c2ccccc2)CC1	-6.06%
CC(c1nnc(Sc2nnnn2-c2ccccc2)n1-c1ccc(F)cc1)N(C)C (stereo not shown)	3.57%
COc1cccc(C(=O)Nc2ncc3c(n2)CC(C)(C)CC3=O)c1	-19.3%
CCCCN(CC)CCNC(=S)Nc1ccc2nc(N3CCN(C)CC3)cc(C)c2c1	-0.781%
CCCN1CCC(NC(=S)Nc2cccc(Cl)c2Cl)CC1	-4.2%
O=C(Cc1ccc(Cl)cc1)Nc1cc(S(=O)(=O)N2CCOCC2)ccc1N1CCCC1	-37.3%
CCOC(=O)Cn1c2ccccc2c2nc(C)sc21	12.3%
CCCc1cc(=O)oc2cc(OCC(=O)N3CCC(C(N)=O)CC3)ccc12	-6.67%
CCc1cccc2c(C=C(C#N)C#N)cn(CC(=O)N3CCCCC3)c12	-6.22%
CN(C)CCCN(C(=O)c1ccc(Cl)s1)c1nc2cc3c(cc2s1)OCO3	-69%
COc1cc(C(=O)NCCNC(=O)c2cc(OC)c(C)c(OC)c2)cc(OC)c1C	18.6%
COc1ccc(OC)c(C2C3=C(CC(C)(C)CC3=O)Nc3nnnn32)c1 (stereo not shown)	-1.49%
CC1(C)Cc2c(sc(NC(=O)c3ccco3)c2C#N)C(C)(C)N1	-10.4%
CCN(CC)S(=O)(=O)c1ccc(N/N=C/c2cc(OC)c(OC)cc2OC)nc1	4.61%

SMILES	hERG current change (%, negative = inhibition) at 10uM
N#CCCn1cc(/C=N/O)c(-c2ccc(F)cc2)n1	-7.67%
N=c1c(C(=O)NC2CCCCC2)cc2c(=O)n3ccccc3nc2n1Cc1ccccc1	-69.8%
CCOC(=O)c1cnc2ccc(OC)cc2c1Nc1ccc(N2CCN(C)CC2)cc1	-18.2%
COc1ccccc1N(CC(=O)N1CCN(c2ccc(F)cc2)CC1)S(=O)(=O)c1ccc(C)cc1	4.68%
O=C(NN1C(=O)c2cc(Br)ccc2NC1c1ccccc1Cl)c1ccncc1 (stereo not shown)	8.83%
CC(Oc1ccc2c3c(c(=O)oc2c1)CCCC3)C(=O)NCc1ccccn1 (stereo not shown)	-4.72%
O=C(CSc1nnc(-c2ccccc2)n1-c1ccc(Cl)cc1)NNC(=S)Nc1ccccc1	13.5%
CN1CCN(S(=O)(=O)c2ccc(Oc3ccc(F)cc3Br)nc2)CC1	-8.56%
O=C(c1ccccc1NS(=O)(=O)c1ccccc1[N+](=O)[O-])N1CCCC1	15.1%
COC(=O)CSc1ccc2nnc(CCNS(=O)(=O)c3ccccc3)n2n1	24.3%
COc1ccc(N(CN2C(=O)C3CCCCC3C2=O)C(=O)c2ccco2)cc1 (stereo not shown)	-9.31%
CC(C)Cc1cc(C(=O)NCc2cccs2)no1	-16.6%
Cc1ccc(S(=O)(=O)N2CCN(C3CCC(c4ccccc4)CC3)CC2)cc1 (stereo not shown)	-0.849%
Cl.O=C(O)CC1(CC(=O)N2CCN(CCO)CC2)CCCC1	15.9%
CC(C)CC12CN3CCN(CC(C3)/C1=N/O)C2	0.256%
CN1CCN(c2ccc(NC(=O)c3cccc(S(=O)(=O)N4CCCC4)c3)cc2)CC1	5.61%
COC(=O)/C(=C/Nc1cccc2ccccc12)[N+](=O)[O-]	-10.4%
O=C(Nc1ccc(F)cc1)c1cccc2ccccc12	10.3%
O=C(NCC(=O)N(Cc1ccco1)C(C(=O)NC1CCCCC1)c1ccncc1)c1cccs1 (stereo not shown)	-22%
COc1ccc(/C=C/C(=O)Oc2ccc(/C=N/NC(=O)COc3c(C)cccc3C)cc2)cc1	14.5%
CN1CCN(C(=O)c2cc3c(=O)n4ccccc4nc3s2)CC1	-2.57%
COc1cc(C(=O)Nc2ccc(S(=O)(=O)N3CCCCC3C)cc2)cc(OC)c1OC (stereo not shown)	-26%

SMILES	hERG current change (%, negative = inhibition) at 10uM
Cc1ccc(N2/C(=N/c3nc(C)cc(C)n3)NC(=O)CC2C(=O)O)cc1 (stereo not shown)	-4.08%
O=C(NCc1ccccc1)c1cnc(Cl)c(Cl)c1	0.347%
CC(C)COc1ccc(C(=O)Nc2scc(-c3ccc(Cl)cc3Cl)c2C(N)=O)cc1	10.5%
O=C(Cn1ncc2c1-c1ccccc1OC2)N1CCN(Cc2ccc3c(c2)OCO3)CC1	-61.3%
O=C(Nc1ccc(C(=O)N2CCCC2)cc1)c1cccc(C(F)(F)F)c1	8.2%
CCOc1ccc(C(=O)NCCCN2CCOCC2)cc1OCC	27%
O=C(CCCc1nc(-c2ccccc2)no1)N1CCOCC1	-5.34%
COc1ccccc1NC(=O)CSC1=NCCN1.Cl	36.3%
CCCCCCNC(=O)C(=O)NCCc1ccc(Cl)cc1	13.8%
COC(=O)Cc1ccc(NC(=S)NCc2cccc(OC)c2)cc1	2.95%
CNC(=O)C1CC(=O)N/C(=N/N=C(\C)c2cccs2)S1 (stereo not shown)	17.3%
CC(=O)Oc1c(-c2ccc(Br)o2)oc2ccccc2c1=O	7.66%
Cc1ccc(C(C)C)c(OCC(=O)NC(=S)Nc2ccccc2N2CCOCC2)c1	13.1%
O=S(=O)(N1CCOCC1)n1nnc2ccccc21	6.66%
O=c1c2c(nc3nc(COc4ccccc4)[nH]n13)CCC2	-3.16%
CN(C(=O)COC(=O)c1c2c(nc3ccccc13)/C(=C/c1cccc([N+](=O)[O-])c1)CCC2)C1CCS(=O)(=O)C1 (stereo not shown)	2.15%
COc1ccc(O)c(C2=Nc3ccccc3N=C(c3ccco3)C2)c1	6.14%
C=CCn1c(Cc2c(C)[nH]c3ccccc23)nnc1SCC(=O)NCc1ccc(F)cc1	-26.8%
COc1cccc(Nc2nc3ccccc3n2C(C)C)c1	24.1%
CCN(CC)C(=O)CSc1nc(N)c(C#N)c(-c2cccs2)c1C#N	15.5%
COc1ccc(NC(=O)CSc2ncccc2C(=O)OC(C)C)cc1OC	2.51%
C/C(=N/NS(=O)(=O)c1ccc(C)c(C)c1)c1ccncc1	11.5%
